The other results are listed elsewhere or left out.
Columns and labels:
Assay in all cases: glycan array binding signal (z-score within array); higher = stronger binding
Conditions in all cases: glycan notation: IUPAC condensed, linker removed
[1] = molecular target: Neu5Ac(a2-3)Gal(b1-4)GlcNAc6S
How it was run: (§1)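 Arrays were curated from the Consortium for Functional Glycomics database, 3228 in total, and kept only where the protein sequence was available. Binding is expressed as a within-array Z-score. This score was averaged across arrays of the same protein sequence at different concentrations or buffers and across linkers, and negative values can be read as non-binding.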

[2] = molecular target: Neu5Ac(a2-3)Gal(b1-4)[Fuc(a1-3)]GlcNAc
How it was run: as §1

[3] = molecular target: Neu5Ac(a2-3)Gal(b1-4)[Fuc(a1-3)]GlcNAc(b1-3)Gal
How it was run: as §1

[4] = molecular target: Neu5Ac(a2-3)Gal(b1-4)[Fuc(a1-3)]GlcNAc(b1-3)Gal(b1-4)GlcNAc
How it was run: as §1

[5] = molecular target: Neu5Ac(a2-3)Gal(b1-4)[Fuc(a1-3)]GlcNAc(b1-3)Gal(b1-4)[Fuc(a1-3)]GlcNAc(b1-3)Gal(b1-4)[Fuc(a1-3)]GlcNAc
How it was run: as §1

[6] = molecular target: Neu5Ac(a2-3)Gal(b1-4)[Fuc(a1-3)]GlcNAc6S
How it was run: as §1

[7] = molecular target: Neu5Ac(a2-3)Gal6S(b1-4)GlcNAc
How it was run: as §1

[8] = molecular target: Neu5Ac(a2-3)Gal6S(b1-4)[Fuc(a1-3)]GlcNAc
How it was run: as §1

[9] = molecular target: Neu5Ac(a2-3)GalNAc
How it was run: as §1

[10] = molecular target: Neu5Ac(a2-3)GalNAc(b1-4)GlcNAc
How it was run: as §1

[11] = molecular target: Neu5Ac(a2-3)[GalNAc(b1-4)]Gal(b1-4)Glc
How it was run: as §1

[12] = molecular target: Neu5Ac(a2-3)[GalNAc(b1-4)]Gal(b1-4)GlcNAc
How it was run: as §1

[13] = molecular target: Neu5Ac(a2-3)[Neu5Ac(a2-6)]GalNAc
How it was run: as §1

[14] = molecular target: Neu5Ac(a2-6)Gal(b1-4)GlcNAc
How it was run: as §1

[15] = molecular target: Neu5Ac(a2-6)Gal(b1-4)GlcNAc(b1-2)Man(a1-3)[Neu5Ac(a2-6)Gal(b1-4)GlcNAc(b1-2)Man(a1-6)]Man(b1-4)GlcNAc(b1-4)GlcNAc
How it was run: as §1

[16] = molecular target: Neu5Ac(a2-6)Gal(b1-4)GlcNAc(b1-3)Gal(b1-4)GlcNAc
How it was run: as §1

[17] = molecular target: Neu5Ac(a2-6)Gal(b1-4)GlcNAc(b1-3)Gal(b1-4)[Fuc(a1-3)]GlcNAc(b1-3)Gal(b1-4)[Fuc(a1-3)]GlcNAc
How it was run: as §1

[18] = molecular target: Neu5Ac(a2-6)Gal(b1-4)GlcNAc6S
How it was run: as §1

[19] = molecular target: Neu5Ac(a2-6)GalNAc
How it was run: as §1

[20] = molecular target: Neu5Ac(a2-6)GalNAc(b1-4)GlcNAc
How it was run: as §1

[21] = molecular target: Neu5Ac(a2-8)Neu5Ac
How it was run: as §1

[22] = molecular target: Neu5Ac(a2-8)Neu5Ac(a2-3)Gal(b1-4)Glc
How it was run: as §1

[23] = molecular target: Neu5Ac(a2-8)Neu5Ac(a2-3)[GalNAc(b1-4)]Gal(b1-4)Glc
How it was run: as §1

[24] = molecular target: Neu5Ac(a2-8)Neu5Ac(a2-8)Neu5Ac
How it was run: as §1

[25] = molecular target: Neu5Ac(a2-8)Neu5Ac(a2-8)Neu5Ac(a2-3)Gal(b1-4)Glc
How it was run: as §1

[26] = molecular target: Neu5Ac(a2-8)Neu5Ac(a2-8)Neu5Ac(a2-3)[GalNAc(b1-4)]Gal(b1-4)Glc
How it was run: as §1

[27] = molecular target: Neu5Ac(a2-8)Neu5Ac(a2-8)Neu5Ac(a2-8)Neu5Ac(a2-3)[GalNAc(b1-4)]Gal(b1-4)Glc
How it was run: as §1

[28] = molecular target: Neu5Ac9Ac(a2-6)Gal(b1-4)GlcNAc
How it was run: as §1

[29] = molecular target: Neu5Gc(a2-3)Gal(b1-3)GlcNAc
How it was run: as §1

[30] = molecular target: Neu5Gc(a2-3)Gal(b1-3)[Fuc(a1-4)]GlcNAc
How it was run: as §1

[31] = molecular target: Neu5Gc(a2-3)Gal(b1-4)Glc
How it was run: as §1

[32] = molecular target: Neu5Gc(a2-3)Gal(b1-4)GlcNAc
How it was run: as §1

[33] = molecular target: Neu5Gc(a2-3)Gal(b1-4)[Fuc(a1-4)]GlcNAc
How it was run: as §1

[34] = molecular target: Neu5Gc(a2-6)Gal(b1-4)GlcNAc
How it was run: as §1

[35] = molecular target: Neu5Gc(a2-6)GalNAc
How it was run: as §1

B1: 7WC (Trifolium repens) (protein)
chain: MGTITSYAVVFDAGSTGSRVHVYHFDQNLDLLHIGKDVEFYNKIQPGLSAYADNPEQAAKSLIPLLEQAENVVPEDFHSKTPIRLGATAGLRLLDGDASERILQAVRDMLNNKSTFNVQPDAVSIIDGTQEGSYLWVTINYVLGNLGKRFTNTVGVIDLGGGSVQMAYAVSKKTARNAPKVTDGEDPYIKKIVLKGKPYDLYVHSYLHFGREASRAEILKVTHGSASPCILAGFDGIYTYSGEEFKASAPTSGANFDKCKKIIQKALKLDYPCPYQNCTFGGIWNGGGGSGQKKLFAASSFFYLPQDVGMVDPNKSNLKLRPVDLENKAKIVCTLNVEDVKSAYPLLEKFNIVPYACMDLIYQYELLVDGFGLDPLQEITAGEKIEYQEALVDAAWALGNAVEAVLLLPKFERLMYFVVEHHHHHH
**Q.** Which results are given for B1?
**A.** glycan array binding signal (z-score) [1]: -0.474; glycan array binding signal (z-score) [2]: -0.477; glycan array binding signal (z-score) [3]: -0.548; glycan array binding signal (z-score) [4]: -0.241; glycan array binding signal (z-score) [5]: 2.57; glycan array binding signal (z-score) [6]: -0.541; glycan array binding signal (z-score) [7]: -0.463; glycan array binding signal (z-score) [8]: -0.54; glycan array binding signal (z-score) [9]: -0.224; glycan array binding signal (z-score) [10]: -0.32; glycan array binding signal (z-score) [11]: -0.564; glycan array binding signal (z-score) [12]: -0.316; glycan array binding signal (z-score) [13]: -0.542; glycan array binding signal (z-score) [14]: -0.295; glycan array binding signal (z-score) [15]: -0.511; glycan array binding signal (z-score) [16]: -0.502; glycan array binding signal (z-score) [17]: -0.29; glycan array binding signal (z-score) [18]: -0.46; glycan array binding signal (z-score) [19]: -0.153; glycan array binding signal (z-score) [20]: -0.274; glycan array binding signal (z-score) [21]: -0.489; glycan array binding signal (z-score) [22]: -0.511; glycan array binding signal (z-score) [23]: -0.463; glycan array binding signal (z-score) [24]: -0.529; glycan array binding signal (z-score) [25]: -0.355; glycan array binding signal (z-score) [26]: -0.48; glycan array binding signal (z-score) [27]: -0.429; glycan array binding signal (z-score) [28]: -0.491; glycan array binding signal (z-score) [29]: -0.48; glycan array binding signal (z-score) [30]: -0.369; glycan array binding signal (z-score) [31]: -0.385; glycan array binding signal (z-score) [32]: -0.512; glycan array binding signal (z-score) [33]: -0.456; glycan array binding signal (z-score) [34]: -0.476; glycan array binding signal (z-score) [35]: -0.16
